One assay deals with T1, human IL-2Rα-Fc (human, UniProt P01589 22-240, limits assumed).
T1 construct: Receptor-Fc immobilised on AHC biosensors; also called IL-2Rα subunit; CD25; not shown: Fc part (captured by anti-human IgG Fc biosensors)
T1 sequence: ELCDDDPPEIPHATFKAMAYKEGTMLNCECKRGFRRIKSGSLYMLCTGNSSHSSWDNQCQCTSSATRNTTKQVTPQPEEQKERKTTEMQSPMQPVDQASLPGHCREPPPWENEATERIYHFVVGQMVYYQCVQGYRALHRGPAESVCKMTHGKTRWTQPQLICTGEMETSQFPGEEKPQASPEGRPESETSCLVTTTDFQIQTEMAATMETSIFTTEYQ
Kind of assay: BLI (Octet Red96e), human IL-2Rα-Fc captured on AHC biosensors, global 1:1 fit, average of triplicate experiments. As for the experimental part: (§1) Kinetic measurements were performed using bio-layer interferometry on ForteBio's Octet Red96e using anti-Human IgG Fc capture (AHC) for human IL-2R. All experiments were performed at 30° C. with the orbital shake speed of 1000 rpm. Samples were diluted in assay buffer of 25 mM HEPES, pH 6.8, 50 mM KCl, 5% polyethylene glycol (PEG) 6000, 0.1% bovine serum albumin (BSA), 0.02% Tween20 in a 96-well non-binding black plate (Greiner 655900).
(§2) All proteins were diluted in assay buffer containing 25 mM HEPES, pH 6.8, 50 mM KCl, 5% PEG 6000, 0.1% BSA, 0.02% Tween20. The receptor ligands were prepared to a final concentration of 20 nM for IL-2Rα-Fc, and 25 nM for IL-2Rβ-Fc, and dispensed into a column of a 96-well non-binding plate at a volume of 200 μl/well. […] The analytes were added to the 96-well plate at 200 μl/well. Kinetic measurements were made with appropriate concentration ranges depending on signal and robustness of fit.
(§3) Raw data was processed and analyzed with ForteBio's Data Analysis 11.0 software. For each run the varying analyte concentrations were subtracted from their corresponding reference well to compensate for any background drift. The sensorgrams Y-axis were aligned to the baseline for a common reference point, and the inter-step correction was aligned to dissociation to correct for any misalignments between the association and dissociation steps. The sensorgrams were processed with a Savitzky-Golay Filtering to remove any high-frequency noise from the curves. The processed curves were globally fit to a 1:1 binding model [Hahnefeld et al. (2004) Methods in Molecular Medicine 94:299]. […] This may be due to low signal amplitude to noise. […] Rat IL-2Rα-his binding experiments were performed in duplicate.

For the next assay, the target named is T2, human IL-2Rβ-Fc (human, UniProt P14784 28-240, limits assumed).
T2 construct: Receptor-Fc immobilised on AHC biosensors; also called IL-2Rβ subunit; CD122; not shown: Fc part (captured by anti-human IgG Fc biosensors)
T2 sequence: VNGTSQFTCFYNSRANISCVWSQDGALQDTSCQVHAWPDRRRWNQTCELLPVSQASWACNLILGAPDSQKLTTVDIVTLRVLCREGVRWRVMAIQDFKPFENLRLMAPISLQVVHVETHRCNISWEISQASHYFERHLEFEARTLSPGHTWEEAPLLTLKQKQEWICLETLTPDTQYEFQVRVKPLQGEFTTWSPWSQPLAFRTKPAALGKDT
Kind of assay: BLI (Octet Red96e), human IL-2Rβ-Fc captured on AHC biosensors, global 1:1 fit, average of triplicate experiments. As for the experimental part:
as §1, §2, §3

B1: CUE-1646 (WT IL-2-FLAG) (ligand)
chain: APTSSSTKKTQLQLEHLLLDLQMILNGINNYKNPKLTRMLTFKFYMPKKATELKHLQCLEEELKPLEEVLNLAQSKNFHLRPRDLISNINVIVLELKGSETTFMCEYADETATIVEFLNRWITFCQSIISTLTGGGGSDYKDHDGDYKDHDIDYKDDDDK
notes: also called WT IL-2 construct
In the assay with human IL-2Rα-Fc, B1 had a Kd of 10.7 nM, a koff of 0.0058 s⁻¹ and a kon of 550000 M⁻¹ s⁻¹. Further, in the assay with human IL-2Rβ-Fc, the Kd amounted to 197 nM, the koff came to 0.12 s⁻¹ and the on-rate constant (kon) was 590000 M⁻¹ s⁻¹.

B2: CUE-1647 (H16A; F42A mutant IL-2-FLAG) (ligand)
chain: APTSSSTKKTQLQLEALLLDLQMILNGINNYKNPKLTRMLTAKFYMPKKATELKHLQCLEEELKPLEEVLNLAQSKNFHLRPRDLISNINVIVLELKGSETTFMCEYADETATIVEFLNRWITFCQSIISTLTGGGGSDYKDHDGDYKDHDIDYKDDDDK
notes: also called double mutant; mutant IL-2 construct
As for B2, in the assay with human IL-2Rα-Fc, the equilibrium dissociation constant (Kd) was 1180 nM, the koff came to 0.524 s⁻¹ and the kon worked out at 310000 M⁻¹ s⁻¹. In the assay with human IL-2Rβ-Fc, this molecule returned a Kd of 613 nM, a koff of 0.44 s⁻¹ and a kon of 710000 M⁻¹ s⁻¹.

The values above are taken from patent US20250243254A1 (CUE BIOPHARMA, published 2025).
